The campaign covered roughly 360,000 compounds. About 7,500 (2.1%) were called active. About 20% were inconclusive and are not listed. Calls follow the shape of the dose curve; as a rule, active = well fitted inhibition curve with a large enough effect; inconclusive = small, poorly fitted or top-dose-only effect, or effect the other way; inactive = flat fitted curve, though single readings scatter. The list shows a part of the results, in another mix than the full data. Some structures have more than one record in an assay (separate samples or runs), and their calls can disagree.
Experiment: Nrf2 qHTS screen for inhibitors; also: nearly all actives have a fitted effect of over 60% in size
Settings: A549 ARE-Fluc reporter, luciferase luminescence, 18-24 h; series mostly up to 46 µM; activity change, negative = inhibition: at the top concentration
Excerpt: NIH Molecular Libraries Probe Production Network [MLPCN]
NIH Chemical Genomics Center [NCGC]
Assay Provider: Shyam Biswal, Johns Hopkins University
Nrf2 is a transcription factor that maintains cellular redox homoestasis and protects cells from xenobiotics. Nrf2 binds to the antioxidant response element (ARE) to induce gene expression of a broad spectrum of genes that encode for antioxidants. […] Finding a small molecule that act as an inhibitor of Nrf2 function would represent a novel therapeutic target that could lead to improvement in survival of patients undergoing chemo- and/or radio- therapy.
This is the Nrf2 activity measured in the luminescent read.
1. Shibata, T., et al., Genetic Alteration of Keap1 Confers Constitutive Nrf2 Activation and Resistance to Chemotherapy in Gallbladder Cancer. Gastroenterology, 2008.
2. Sjoblom, T., et al., The consensus coding sequences of human breast and colorectal cancers. Science, 2006. 314(5797): p. 268-74.
NCGC Assay Protocol Summary:
A concentration-response assay was performed with A549 ARE_Fluc cells which are suspended in 5% FBS OPTI-MEM. Five uL were dispensed into 1536-well white TC-treated plate using the Kalypsys dispenser to achieve a density of 5000 cells/well in all columns except column 1. The plate is incubated at 37deg C at 5% CO2 for 2 hours before 23 nL of compounds are added with the Kalypsys pin tool equipped with a 1,536-pin array containing 10-nL slotted pins (FP1S10, 0.457-mm diameter, 50.8 mm long; V&P Scientific). The control compounds Budesonide and Staurosporine are both added at a concentration of 2mM and Budesonide is also added as a 1:10 titration, starting at 200uM, to achieve dose-response. After an 18-24 hour incubation at 37deg C at 5% CO2, 5ul of medium is added to column 1. Afterwards 1ul of 5x of CellTiter-Fluor (Promega) is added to every well. The plate is then incubated at 37deg C at 5% CO2 for 30 minutes before they are read on the ViewLux (Perkin Elmer) for a fluorescent read Ex=405(10)/Em=525(10) for a 3 second exposure, 2x binning, and high gain. Then 3 uL of 3x BugLite is dispensed into all wells and the plate is incubated at ambient room temperature for 15 minutes. Afterwards another ViewLux read is performed using the clear filter to get a luminescent read with the settings of 40 second exposure, 2x binning, and high gain. Cytotoxicity is assessed through the first fluorescent read and then biochemical activity against Nrf2 is measured in the luminescent read.
% is scaled to controls: 0 for no effect and ±100 for the full control effect; potency is read from the fitted curve at half-maximal effect.

| Compound | activity change, negative = inhibition | Potency |
| --- | --- | --- |
| O=C(Nc1ccccc1)C1=C[C@H](C2CCCCC2)C[C@H](OCc2ccc(CO)cc2)O1 | inactive: 9.46% | – |
| COc1ccc(SCCN2CCN(CC(C)C)CCC2=O)cc1 | inactive: 3.76% | – |
| N#C/C(=C(/O)CCl)c1nnc2n1CCCCC2 | inactive: 3.37% | – |
| COc1cccc(/C=N/n2c(N)c(S(=O)(=O)c3cccs3)c3nc4ccccc4nc32)c1OC | – | active: 3.66 µM |
| Cc1ccc2c(c1)N(CC(=O)NCCc1ccc(Cl)cc1)C(=O)c1cccnc1O2 | inactive: -1.93% | – |
| CCOc1cc(/C=N/N=C(\N)c2nonc2N)cc(Br)c1OCc1cccc2ccccc12 | – | active: 20.6 µM |
| Cc1ccc(S(=O)(=O)N2CCC[C@H]2C(=O)NCc2ccccc2Cl)cc1 | inactive: -12.7% | – |
| COc1ccc(-n2nnnc2-c2cnc(N3CCCC3)nc2C(F)(F)F)cc1 | – | active: 18.4 µM |
| CCO[C@H]1OC(C(=O)Nc2ccccc2)=C[C@@H](c2coc3ccccc3c2=O)[C@@H]1CCCO | inactive: -13.6% | – |
| NCc1ccccc1 | inactive: 2.94% | – |
| COC(=O)c1cc(S(=O)(=O)N2CCN(c3ccc(F)cc3)CC2)cn1C | inactive: -18.5% | – |
| COc1ccc(OC)c(NC(=O)Cc2c(C)n(C(=O)c3ccc(Cl)cc3)c3ccc(OC)cc23)c1 | – | active: 23.1 µM |
| CCOC(=O)[C@@H]1[C@H]2COc3cc(OC)ccc3[C@H]2N2C(=O)N(c3ccc(F)cc3)C(=O)[C@@]12C | inactive: 4.95% | – |
| O=C(O)c1ccc(NC(=O)c2cc3ccccc3o2)cc1 | inactive: -10.8% | – |
| COCCCn1c(=O)c2sccc2n2c(CCCC(=O)NCc3ccc(F)cc3)nnc12 | inactive: -2.22% | – |
| Cc1ccc2[nH]c3c(=O)n(CC(=O)NCCc4ccc(Cl)cc4)ncc3c2c1 | inactive: 11% | – |
| C=CC[C@@H](CC(=O)N[C@@H](CO)Cc1ccccc1)C(=O)N[C@H](COC(=O)[C@H](CC=C)CC(=O)OC(C)(C)C)Cc1ccccc1 | inactive: 2.9% | – |
| O=S(=O)(Nc1nc2ccccc2nc1N1CCN(c2ccccc2)CC1)c1ccc(F)cc1 | – | active: 25.9 µM |
| CC1=C(C(=O)OC(C)C)C(c2cn(-c3ccccc3)nc2-c2cccs2)NC(=O)N1 (configuration not stated) | – | active: 18.4 µM |
| CCOc1ccc(N(CC(=O)N2CCC(Cc3ccccc3)CC2)S(C)(=O)=O)cc1 | – | active: 25.9 µM |
| O=S(=O)(c1ccc2nc(N3CCN(c4ccccc4F)CC3)ccc2c1)N1CCCCC1 | inactive: 6.16% | – |

| Compound | activity change, negative = inhibition | Potency |
| --- | --- | --- |
| COC(=O)c1[nH]c2ccccc2c1NC(=O)CN1CCN(c2cccc(OC)c2)C(C)C1 (configuration not stated) | – | active: 25.9 µM |
| O=C(c1ccc(CS(=O)(=O)c2ccc(Br)cc2)o1)N1CCN(c2ccc(F)cc2)CC1 | inactive: -0.927% | – |
| CC(=O)C[C@H](O)CC(=O)[C@@H]1OC(=O)[C@@H](C)C/C=C\Cc2ccccc21 | inactive: 3.57% | – |
| C(=C/c1nccc2c1[nH]c1ccccc12)/c1ccc2c(c1)OCO2 | inactive: -14.5% | – |
| O=C1N(c2ccccc2C(F)(F)F)O[C@]1(c1ccccc1)C1CCCC1 | inactive: 3.38% | – |
| CC1(C)c2[nH]c3ccccc3c2C[C@@H]2C(=O)N(Cc3ccc(F)cc3)C(=O)N21 | inactive: -23.1% | – |
| Cn1nc(-c2cccnc2)nc2c(=O)n(C)c(=O)nc1-2 | – | active: 7.31 µM |
| COC(=O)c1ccccc1NC(=O)CCCn1nc(C)c2c(C)n(-c3ccccc3)nc2c1=O | inactive: -4.68% | – |
| C=CCC[C@@H](Cc1ccc(F)cc1)C(=O)OC[C@@H](Cc1c[nH]c2ccccc12)NC(=O)[C@@H](CC=C)CC(=O)N[C@H](CO)Cc1ccccc1 | inactive: -1.89% | – |
| CCO[C@H]1OC(C(=O)NCc2ccccc2)=C[C@@H](c2coc3ccccc3c2=O)[C@@H]1CCCO | inactive: -15.8% | – |
| O=C(O)c1ccc(Cl)c(S(=O)(=O)N2CCCCCC2)c1 | – | active: 25.9 µM |
| C[C@H]1CC[C@@]2(O[C@@H](CCO)C[C@@H](O)[C@@H]2O)O1 | inactive: -11.3% | – |
| Cc1ccc2c(c1)c1c(c(=O)n(-c3ccccc3)c(=O)n1CC(=O)NCC1CCCO1)n2C (configuration not stated) | inactive: 7.49% | – |
| COC(=O)C(C)Sc1ccc2nnc(CCNS(=O)(=O)c3ccc(C)cc3)n2n1 (configuration not stated) | inactive: 4.02% | – |
| COc1cc(OC)c2c(-c3ccccc3)cc(=O)oc2c1C(CCN1CCCC1)c1ccc2c(c1)OCO2 (configuration not stated) | inactive: 21% | – |
| CCOC(=O)/C(=C\c1ccc(N2CCC(c3ccccc3)=N2)cc1)C(C)=O | inactive: 116% | – |
| CN(C)CCN(Cc1ccccc1)S(=O)(=O)c1csc(C(N)=O)c1 | inactive: 0.0968% | – |
| COc1ccc(N(CC(C)C)S(=O)(=O)c2nnc(NC(=O)c3ccco3)s2)cc1 | inactive: -7.82% | – |
| C=CC[C@H](CC(=O)N[C@H](CO)Cc1ccccc1)C(=O)N[C@H](COC(=O)[C@H](CC=C)CC(=O)OC(C)(C)C)Cc1c[nH]c2ccccc12 | inactive: 9.36% | – |
| O=C(O)CCn1cc(/C=C\C(=O)c2ccc(Cl)cc2)c(-c2cccc(Br)c2)n1 | inactive: -33.3% | – |
| Cc1n[nH]c(C)c1S(=O)(=O)N1CCCC(C(=O)Nc2ccc(Br)cc2)C1 (configuration not stated) | inactive: 10.6% | – |

— PubChem BioAssay AID504444 (National Center for Advancing Translational Sciences (NCATS), 2011)
